In all, about 48,000 compounds went through this assay and about 450 (0.94%) were called active. Roughly 19% stayed inconclusive and do not appear here. Calls come from the whole dose curve; as a rule, active = well fitted inhibition curve with a large enough effect; inconclusive = small, poorly fitted or top-dose-only effect; inactive = no such curve, though single readings can be large or run the other way. This is one part of the list.
Assay: Primary qHTS for Identification of Small Molecule Inhibitors of Huntingtin Promoter Activity; note: nearly all actives have a fitted effect of over 50% in size
Conditions: HEK293 HTT promoter firefly luciferase reporter (activity 0% = vehicle and -100% = no light), 24 h; series mostly up to 57.5 µM; activity change, negative = inhibition: at the top concentration
Summary of the method: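 Firefly luciferase readout (Dual-Glo, 10 min RT) after 24 h, 37 °C compound exposure (final up to 57.5 uM) of HEK293 reporter cells cultured 24 h beforehand; PTC124 at 50 uM final as control inhibitor; activity scaled vehicle 0%, zero RLU -100%.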

Activity change, negative = inhibition, inactive:
CCc1cccc(C)c1NC(=O)C1CCCN1S(=O)(=O)c1cccc2nsnc12 (stereo unspecified) -16.2%
Cc1ccc(C(=O)c2cn(Cc3ccccc3)c3nc(C)ccc3c2=O)cc1 -11.5%
CCn1c(=O)c(=O)n(CC)c2cc(S(=O)(=O)Nc3ccc(C)cc3)ccc21 -12.7%
COc1cc(OC)c(NC(=O)c2cc3c(=O)oc4ccc(C)cc4c3s2)cc1Cl -16.4%
Cc1ccc(-n2ncc3c(NCCO)ncnc32)cc1Cl 61.9%
Cc1cc(NC(=O)c2cc(-c3ccc(Cl)cc3)on2)n(-c2ccccc2)n1 1.69%
CCOc1ccc(NC(=O)Cn2c(=O)n(-c3cccc(Cl)c3)c(=O)c3c2c2cc(C)ccc2n3C)cc1 -5.89%
CCOc1cccc(C2c3[nH]c4ccccc4c3CCN2C(=O)CSc2ccccc2)c1 (stereo unspecified) -29.9%
Cc1cccc(C(=O)N2CCc3cc(CNC(=O)COc4ccc(Cl)cc4)ccc32)c1 -26.4%
Cc1ccccc1Nc1c(-c2ccc(Cl)cc2)nc2c(C)cccn12 -3.14%
COc1ccc(NC(=O)Cn2c(=O)n(CCc3ccccc3)c(=O)c3c4c(sc32)CCCC4)cc1 -3.04%
CCOC(=O)c1c(NC(=O)c2nc(SCC)ncc2Cl)sc2c1CCCC2 6.49%
COc1cc2c(=O)c(C(=O)c3ccc(C)c(C)c3)cn(Cc3ccc(F)cc3)c2cc1OC 2.15%
CCOc1ccccc1NC(=O)c1ccc2c(c1)CCN2S(=O)(=O)c1ccc(C)cc1 -2.91%
Cc1nc(SCC(=O)Nc2ccccc2C)cc(-c2ccccc2)n1 -1.77%
CCSc1nnc2c(n1)OC(c1cc(OC)c(OC)c(OC)c1)Nc1ccccc1-2 (stereo unspecified) -3.77%
CCOC(=O)c1c(C)[nH]c(C)c1S(=O)(=O)NCC(=O)Nc1ccc(C)c(N(C)C)c1 -9.54%
CCOc1cc(CNC(=O)Cn2c(=O)c3cccn3c3ccc(F)cc32)cc(OCC)c1OCC -14.1%
COc1cc(NS(=O)(=O)c2ccc(NC(=O)c3cccc(F)c3)cc2)nc(OC)n1 -6.42%
CCC1CN(S(=O)(=O)c2cc(-c3cc(C)no3)ccc2C)c2cc(Cl)ccc2O1 (stereo unspecified) -11.3%
CCCc1nn2c(=O)cc(COC(=O)c3cccc(NC(=O)c4cccs4)c3)nc2s1 -17.3%
CCc1cccc(C)c1NC(=O)CCS(=O)(=O)c1cc(Br)cc2c1N(C(=O)C1CC1)CC2 -20.3%
Cc1c(C(=O)NCc2ccc(Cl)cc2)sc2nc3n(c(=O)c12)CCCCC3 -19.1%
O=C(Nc1ccc(C(=O)OCc2cc(=O)n3c4c(sc3n2)CCCC4)cc1)c1ccc(F)cc1 -8.08%
CCc1nn2c(-c3ccccc3OC)ccnc2c1-c1ccccc1 -21.7%
O=C(NCCc1ccccc1)C(=O)NCC(c1ccco1)S(=O)(=O)c1cccs1 (stereo unspecified) -23.5%

Source: PubChem BioAssay AID1508623 (National Center for Advancing Translational Sciences (NCATS), 2021)
